# Laboratory results from the supplement of paper PMC8728848.
# The other results are listed elsewhere or left out.
# B1: Neuropilin-1 (Rattus norvegicus), Q9QWJ9 (protein)
# chain: MERGLPLLCATLALALALAGAFRSDKCGGTIKIENPGYLTSPGYPHSYHPSEKCEWLIQAPEPYQRIMINFNPHFDLEDRDCKYDYVEVIDGENEGGRLWGKFCGKIAPSPVVSSGPFLFIKFVSDYETHGAGFSIRYEIFKRGPECSQNYTAPTGVIKSPGFPEKYPNSLECTYIIFAPKMSEIILEFESFDLEQDSNPPGGVFCRYDRLEIWDGFPEVGPHIGRYCGQKTPGRIRSSSGILSMVFYTDSAIAKEGFSANYSVLQSSISEDFKCMEALGMESGEIHSDQITASSQYGTNWSVERSRLNYPENGWTPGEDSYREWIQVDLGLLRFVTAVGTQGAISKETKKKYYVKTYRVDISSNGEDWITLKEGNKAIIFQGNTNPTDVVFGVFPKPLITRFVRIKPASWETGISMRFEVYGCKITDYPCSGMLGMVSGLISDSQITASNQGDRNWMPENIRLVTSRTGWALPPSPHPYINEWLQVDLGDEKIVRGVIIQGGKHRENKVFMRKFKIAYSNNGSDWKMIMDDSKRKAKSFEGNNNYDTPELRAFTPLSTRFIRIYPERATHSGLGLRMELLGCEVEVPTAGPTTPNGNPVDECDDDQANCHSGTGDDFQLTGGTTVLATEKPTIIDSTIQSEFPTYGFNCEFGWGSHKTFCHWEHDSHAQLRWRVLTSKTGPIQDHTGDGNFIYSQADENQKGKVARLVSPVVYSQSSAHCMTFWYHMSGSHVGTLRVKLHYQKPEEYDQLVWMVVGHQGDHWKEGRVLLHKSLKLYQVIFEGEIGKGNLGGIAVDDISINNHIPQEDCAKPTDLDKKNTEIKIDETGSTPGYEEGKGDKNISRKPGNVLKTLDPILITIIAMSALGVLLGAVCGVVLYCACWHNGMSERNLSALENYNFELVDGVKLKKDKLNPQSNYSEA
# Tests used:
# Test in all cases: glycan array binding signal (z-score within array); higher = stronger binding
# Details in all cases: glycan notation: IUPAC condensed, linker removed
# Neu5Ac(a2-3)Gal = target: Neu5Ac(a2-3)Gal
# Outline: (§1)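 Glycan array binding is given as a within-array Z-score, which can be read as non-binding when negative. The arrays, 3228 of them, came from the Consortium for Functional Glycomics database and were retained only where the protein sequence was available. Z-scores were averaged across arrays of the same protein sequence at different concentrations or buffers and across linkers.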
# [1] = target: Neu5Ac(a2-3)Gal(b1-3)GalNAc
# Outline: as §1
# [2] = target: Neu5Ac(a2-3)Gal(b1-3)GalNAc(b1-3)Gal(a1-4)Gal(b1-4)Glc
# Outline: as §1
# [3] = target: Neu5Ac(a2-3)Gal(b1-3)GalNAc(b1-3)Gal(b1-4)GlcNAc
# Outline: as §1
# [4] = target: Neu5Ac(a2-3)Gal(b1-3)GalNAc(b1-4)[Neu5Ac(a2-3)]Gal(b1-4)Glc
# Outline: as §1
# [5] = target: Neu5Ac(a2-3)Gal(b1-3)GalNAc6S
# Outline: as §1
# [6] = target: Neu5Ac(a2-3)Gal(b1-3)GlcNAc
# Outline: as §1
# [7] = target: Neu5Ac(a2-3)Gal(b1-3)GlcNAc(b1-3)Gal(b1-3)GlcNAc
# Outline: as §1
# [8] = target: Neu5Ac(a2-3)Gal(b1-3)GlcNAc6S
# Outline: as §1
# [9] = target: Neu5Ac(a2-3)Gal(b1-3)[Fuc(a1-4)]GlcNAc
# Outline: as §1
# [10] = target: Neu5Ac(a2-3)Gal(b1-3)[Fuc(a1-4)]GlcNAc(b1-3)Gal(b1-3)[Fuc(a1-4)]GlcNAc
# Outline: as §1
# [11] = target: Neu5Ac(a2-3)Gal(b1-3)[Fuc(a1-4)]GlcNAc(b1-3)Gal(b1-4)[Fuc(a1-3)]GlcNAc
# Outline: as §1
# [12] = target: Neu5Ac(a2-3)Gal(b1-3)[Neu5Ac(a2-3)Gal(b1-4)]GlcNAc
# Outline: as §1
# [13] = target: Neu5Ac(a2-3)Gal(b1-3)[Neu5Ac(a2-6)]GalNAc
# Outline: as §1
# Neu5Ac(a2-3)Gal(b1-4)Glc = target: Neu5Ac(a2-3)Gal(b1-4)Glc
# Outline: as §1
# [14] = target: Neu5Ac(a2-3)Gal(b1-4)GlcNAc
# Outline: as §1
# [15] = target: Neu5Ac(a2-3)Gal(b1-4)GlcNAc(b1-2)Man(a1-3)[GlcNAc(b1-2)Man(b1-4)GlcNAc(b1-2)Man(a1-6)]Man(b1-4)GlcNAc(b1-4)GlcNAc
# Outline: as §1
# [16] = target: Neu5Ac(a2-3)Gal(b1-4)GlcNAc(b1-2)Man(a1-3)[Neu5Ac(a2-6)Gal(b1-4)GlcNAc(b1-2)Man(a1-6)]Man(b1-4)GlcNAc(b1-4)GlcNAc
# Outline: as §1
# [17] = target: Neu5Ac(a2-3)Gal(b1-4)GlcNAc(b1-3)Gal(b1-3)GlcNAc
# Outline: as §1
# [18] = target: Neu5Ac(a2-3)Gal(b1-4)GlcNAc(b1-3)Gal(b1-4)GlcNAc
# Outline: as §1
# [19] = target: Neu5Ac(a2-3)Gal(b1-4)GlcNAc(b1-3)Gal(b1-4)GlcNAc(b1-3)Gal(b1-4)GlcNAc
# Outline: as §1
# [20] = target: Neu5Ac(a2-3)Gal(b1-4)GlcNAc(b1-3)Gal(b1-4)[Fuc(a1-3)]GlcNAc
# Outline: as §1
# [21] = target: Neu5Ac(a2-3)Gal(b1-4)GlcNAc(b1-3)GalNAc
# Outline: as §1
# [22] = target: Neu5Ac(a2-3)Gal(b1-4)GlcNAc(b1-6)[Gal(b1-3)]GalNAc
# Outline: as §1
# [23] = target: Neu5Ac(a2-3)Gal(b1-4)GlcNAc(b1-6)[Neu5Ac(a2-3)Gal(b1-3)]GalNAc
# Outline: as §1
# [24] = target: Neu5Ac(a2-3)Gal(b1-4)GlcNAc6S
# Outline: as §1
# [25] = target: Neu5Ac(a2-3)Gal(b1-4)[Fuc(a1-3)]GlcNAc
# Outline: as §1
# [26] = target: Neu5Ac(a2-3)Gal(b1-4)[Fuc(a1-3)]GlcNAc(b1-3)Gal
# Outline: as §1
# [27] = target: Neu5Ac(a2-3)Gal(b1-4)[Fuc(a1-3)]GlcNAc(b1-3)Gal(b1-4)GlcNAc
# Outline: as §1
# [28] = target: Neu5Ac(a2-3)Gal(b1-4)[Fuc(a1-3)]GlcNAc(b1-3)Gal(b1-4)[Fuc(a1-3)]GlcNAc(b1-3)Gal(b1-4)[Fuc(a1-3)]GlcNAc
# Outline: as §1
binder,measurement,setting,value
B1,glycan array binding signal (z-score),Neu5Ac(a2-3)Gal,-0.334
same,glycan array binding signal (z-score),[1],-0.323
same,glycan array binding signal (z-score),[2],-0.354
same,glycan array binding signal (z-score),[3],-0.405
same,glycan array binding signal (z-score),[4],-0.242
same,glycan array binding signal (z-score),[5],-0.301
same,glycan array binding signal (z-score),[6],-0.274
same,glycan array binding signal (z-score),[7],-0.266
same,glycan array binding signal (z-score),[8],-0.371
same,glycan array binding signal (z-score),[9],-0.229
same,glycan array binding signal (z-score),[10],-0.147
same,glycan array binding signal (z-score),[11],0.102
same,glycan array binding signal (z-score),[12],-0.199
same,glycan array binding signal (z-score),[13],-0.148
same,glycan array binding signal (z-score),Neu5Ac(a2-3)Gal(b1-4)Glc,-0.207
same,glycan array binding signal (z-score),[14],-0.172
same,glycan array binding signal (z-score),[15],-0.297
same,glycan array binding signal (z-score),[16],-0.26
same,glycan array binding signal (z-score),[17],-0.287
same,glycan array binding signal (z-score),[18],-0.322
same,glycan array binding signal (z-score),[19],-0.331
same,glycan array binding signal (z-score),[20],-0.215
same,glycan array binding signal (z-score),[21],-0.271
same,glycan array binding signal (z-score),[22],-0.265
same,glycan array binding signal (z-score),[23],-0.251
same,glycan array binding signal (z-score),[24],-0.07
same,glycan array binding signal (z-score),[25],-0.216
same,glycan array binding signal (z-score),[26],-0.351
same,glycan array binding signal (z-score),[27],1.84
same,glycan array binding signal (z-score),[28],-0.084
